In PubChem BioAssay AID488969 (Vanderbilt High Throughput Screening Facility, 2010):
In all, about 110,000 compounds were measured (“z-score”: median about -0.1, highest 2% from about 2 on). This is one part of the list. Activity calls are given as the source filed them.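 The calls were made as follows: active = z-score in the third read window above 3 or below -3; inactive = the rest.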

target: Metabotropic glutamate receptor 8 (Rattus norvegicus) (UniProt P70579); assay: rat mGluR8 modulators via GIRK flux, primary screen, cell-based, thallium flux, HTS (AID 488969); details: HEK293 rat mGluR8, GIRK (G protein-gated inwardly rectifying potassium channel) thallium flux, FluoZin2; at 10 µM; stronger effect = higher value; submaximal glutamate (EC20) added with thallium
UniProt P70579, sequence (P70579 whole entry, looked up): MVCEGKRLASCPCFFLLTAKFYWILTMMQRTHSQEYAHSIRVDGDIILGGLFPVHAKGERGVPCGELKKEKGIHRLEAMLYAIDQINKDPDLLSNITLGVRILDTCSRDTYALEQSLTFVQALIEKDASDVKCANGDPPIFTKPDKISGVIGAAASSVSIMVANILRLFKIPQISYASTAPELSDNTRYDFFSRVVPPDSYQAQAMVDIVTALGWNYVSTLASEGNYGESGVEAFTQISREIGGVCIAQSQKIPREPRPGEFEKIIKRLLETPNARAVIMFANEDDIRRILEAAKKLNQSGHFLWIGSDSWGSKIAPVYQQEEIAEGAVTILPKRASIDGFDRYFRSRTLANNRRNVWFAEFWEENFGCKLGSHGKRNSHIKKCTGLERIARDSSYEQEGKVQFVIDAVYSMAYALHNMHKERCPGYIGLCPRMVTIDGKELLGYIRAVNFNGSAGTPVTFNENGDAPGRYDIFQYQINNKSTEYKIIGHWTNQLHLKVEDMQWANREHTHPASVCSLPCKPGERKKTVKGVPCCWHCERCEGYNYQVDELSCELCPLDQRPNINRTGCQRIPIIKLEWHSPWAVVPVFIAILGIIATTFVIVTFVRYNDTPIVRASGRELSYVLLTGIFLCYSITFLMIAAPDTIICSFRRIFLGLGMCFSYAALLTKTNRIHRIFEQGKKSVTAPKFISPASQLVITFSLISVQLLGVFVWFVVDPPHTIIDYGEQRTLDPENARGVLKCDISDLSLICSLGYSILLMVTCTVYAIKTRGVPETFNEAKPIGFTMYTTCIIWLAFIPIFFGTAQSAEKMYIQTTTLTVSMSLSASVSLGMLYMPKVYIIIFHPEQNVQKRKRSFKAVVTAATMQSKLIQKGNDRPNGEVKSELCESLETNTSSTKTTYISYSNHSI

SMILES	z-score
Nc1ccc2nc(-c3cccnc3)[nH]c2c1	-0.156
CCOC(=O)N1CCN(C(=O)Cc2cccs2)CC1	-1.64
O=C(OCc1cccc2ccccc12)C1CC(=O)N(c2ccccc2)C1 (stereo not drawn)	0.0322
COc1ccc(-n2nnnc2SCC(=O)N2CCOCC2)cc1	active: 3.28
CCCC(=O)c1ccc(N2CCN(S(=O)(=O)c3ccc(C)cc3)CC2)c(F)c1	-0.45
Cn1c(CN2CCCCC2)nc2cc(NC(=O)c3cccc(Br)c3)ccc21	-0.283
COc1ccc(CCNC(=O)C(=O)NCCOc2ccccc2)cc1OC	-0.451
CCOc1cc(/C=C(\C#N)c2[nH]nc(N)c2C#N)ccc1O	-1.75
COc1cccc(NC(=O)Nc2ccc3c(c2)nnn3C)c1	-0.0198
Cc1cccc2c(=O)oc(-c3ccc4c(c3)C(=O)N(CC3CCCO3)C4=O)nc12 (stereo not drawn)	0.679
Cn1c(=O)n(C)c2cc(/C=N/NC(=O)c3ccc(Cl)cc3Cl)ccc21	-0.00337
CC(C)(C)C(=O)c1cn(CC(=O)NCc2ccc3c(c2)OCO3)c2ccccc12	-0.846
CCCCCN1CSC(=S)N(Cc2ccccc2)C1	0.119
Cc1ccc(C2C3=C(CC(C)(C)CC3=O)Nc3n[nH]c(C)c32)cc1 (stereo not drawn)	-2.16
COc1ccc(OC)c(S(=O)(=O)N2CCC(C(=O)NCCc3ccccc3)CC2)c1	-0.277
Cc1ccc(NC(=O)Nc2ccc(Cl)cc2)c(Br)c1	-0.158
CCCCCCCN1N=C(C)C(C(=O)c2ccccc2)C1=O (stereo not drawn)	0.706
Cc1ccc(C(=C2C3C=CC2C2C(=O)NC(=O)C32)c2ccc(C)cc2)cc1 (stereo not drawn)	0.145
CC1CC(Nc2cccc(O)c2)=CC(=O)O1 (stereo not drawn)	-0.0768
O=C(NCCCn1ccnc1)c1ccncc1	0.28
Cc1ccc(C)c(OCC(=O)Nc2c[nH]c(=O)[nH]c2=O)c1	-0.385
Cc1c(/C=N/n2cnnc2)c2ccccc2n1CCOc1ccc(Cl)cc1	1.24
COc1ccc(NC(=O)CSc2c3c(nc4cc(Cl)ccc24)CCCC3)cc1OC	-0.431

SMILES	z-score
CC1=C/C(=N\OS(=O)(=O)c2ccccc2)C(C)=CC1=O	-0.189
Cc1ccc2cccc(Oc3nnnn3-c3ccccc3)c2n1	-1.1
CC(C)NC(=O)CCCc1ccccc1	0.16
CCn1c(=O)cc(OCC(=O)O)c2ccccc21	-0.648
CCOC(=O)c1sc2nc(N3CCOCC3)c3c(c2c1N)CCN(Cc1ccccc1)C3	-0.00385
COc1ccc(CCNC(=O)c2cnn3cccnc23)cc1OC	0.347
COc1ccc(N(CC(=O)NC2CCCCC2)C(=O)CNC(=O)c2ccco2)c(OC)c1	0.0458
CN(C)c1nc(N)nc(CSc2ccccn2)n1	-0.0325
O=C(Nc1nnc(CCN2CCOCC2)s1)C1CCCCC1	0.399
N#CC(C#N)=Cc1cn(-c2ncc(C(F)(F)F)cc2Cl)c2ccccc12	-0.121
Cc1nc2ccc(S(=O)(=O)NC(C(=O)N3CCC(C)CC3)C(C)C)cc2s1 (stereo not drawn)	-0.133
CC1CCC2C(C1)c1sc(=O)[nH]c1SC2(C)C (stereo not drawn)	-0.236
CCOc1ccc(OCCCCNCCN)cc1	0.0466
Cc1cccc(C(=O)Nc2cccc(-c3cnc4ccccc4n3)c2)c1	-0.165
Cc1ccc(NC(=O)CN2CCC3(O)CCCCC3C2c2ccc3c(c2)OCO3)c(C)c1 (stereo not drawn)	-0.00759
COc1ccc(N2C(=O)CC(Sc3ncccc3C(=O)O)C2=O)cc1 (stereo not drawn)	-0.341
CCN(CC(=O)Nc1ccc2c(c1)OCCO2)Cc1cc(=O)oc2cc(C)c(C)cc12	-0.025
O=C(Nc1cc(Sc2ccccn2)cc([N+](=O)[O-])c1)c1ccc([N+](=O)[O-])cc1	-0.0668
COc1cccc(CC(NC(C)=O)C(=O)NC2CCN(c3c4c(nc5ncnn35)CCC4)CC2)c1 (stereo not drawn)	0.172
O=C(Nc1ccccc1F)c1ccco1	0.262
O=C(C1CCCN(Cc2cccs2)C1)N1CCCCCC1 (stereo not drawn)	active: 3.36
Cc1ccc(C(=O)Cn2c(N3CCOCC3)nc3c2c(=O)n(C)c(=O)n3C)cc1	-0.383
COc1cc(C(=O)N2CCC(O)(c3ccccc3)CC2)cc(OC)c1OC	-0.228

SMILES	z-score
Cc1ccc(-n2c(C)cc(/C=N/NC(=O)c3ccncc3)c2C)cc1	-0.0402
Cc1cc(C=O)c(C)n1-c1ccc(N2CCOCC2)cc1	-0.0678
CC(C)(C)CC(C)(C)c1ccc(O)c(CN2CCN(CCC#N)CC2)c1	-0.108
O=C1c2ccccc2C(=O)N1c1ccc(Cl)cc1	0.445
COC(=O)c1ccc(NS(=O)(=O)c2cccc3cccnc23)cc1	0.0976
O=C(Nc1nnc(SCC(=O)N2CCCc3ccccc32)s1)c1ccc2ccccc2c1	0.456
Cn1cc2c(=O)n(/N=C/c3ccccc3)cnc2n1	0.198
COc1ccc(/C=C2/CCOC2=O)cc1	-0.233
CCCCN(CC)C(=O)/C=C/c1cccc([N+](=O)[O-])c1	-0.405
Fc1cccc2sc(Nc3nnc(-c4ccco4)o3)nc12	active: 16
CN(c1ccccc1C(=O)Nc1cccc([N+](=O)[O-])c1)S(C)(=O)=O	-0.567
Cc1cccc(C)c1OCC(O)CN1CCC(CN2C(=O)c3cccc4cccc(c34)C2=O)CC1 (stereo not drawn)	2.99
O=C(Nc1ccc2c(c1)CCC2)c1cc2ccccc2o1	1.94
CN1c2ccccc2C2(C)CCCC3=Cc4cccc([N+](=O)[O-])c4OC312 (stereo not drawn)	-0.263
Cc1ccc2nc(NC(=O)Cc3cccs3)sc2c1	0.542
Nc1ccc(Oc2ccc(Br)cc2)cc1	-0.138
COc1ccc(/C(=N/O)C(C)(C)NO)cc1	-0.376
CCOC(=O)c1ccc(NC(=O)CSc2nnc(C3CCCCC3)n2C)cc1	-0.185
Nc1ncc(Br)cc1N=Cc1ccccc1	-0.0897
COc1ccc(NC(=S)Nc2ccc(OCc3ccccc3)cc2)c(OC)c1	-0.139
CCC(Oc1ccccc1)C(=O)Nc1ccc(S(=O)(=O)Nc2cnc3ccccc3n2)cc1 (stereo not drawn)	-0.155
CC(=O)Nc1ccc2c(c1)nc1n2CCOC1	0.059
O=C(CSc1nnc(-c2ccccc2)n1Cc1ccco1)NCc1ccc2c(c1)OCO2	-0.695

SMILES	z-score
O=C(Nc1ccc(N2CCOCC2)cc1)Nc1cnsn1	-0.053
O=C(CC(=O)N/N=C\c1cccc(Cl)c1Cl)NCc1ccccc1	-0.0129
C=CCN1C(=O)C(Cc2cccc(Cl)c2)S/C1=N/N=C/c1ccco1 (stereo not drawn)	-0.0843
COc1cc(C)nc(Oc2ccc(=O)n(C)n2)n1	-0.196
O=C(/C=C/c1ccc(Cl)c(Cl)c1)n1cccn1	-0.323
COc1ccc(-n2c(SC)nc(O)c(Cc3ccccc3)c2=O)cc1	-0.0522
Cc1ccc(C(=O)NCc2nnc(SCC(=O)Nc3ccccc3)n2C)cc1	-0.213
O=C(Nc1ccccc1C(=O)N1CCOCC1)C1CCC(=O)N1C1CCCC1 (stereo not drawn)	-0.137
CC1(C)CC(=O)C2=C(C1)OC1=C(C(=O)CC(C)(C)C1)C2c1ccc(O)cc1O	0.379
Clc1ccc(COn2nnc3ccccc32)c(Cl)c1	-0.471
OCCNc1nc2ccccc2[nH]1	-0.292
COC(=O)c1cc(=O)n(Cc2ccc(OC)c(OC)c2)c(=Nc2ccc(F)cc2)s1	-0.52
CCOC(=O)C(C(=O)Nc1ccccc1)C1CCCCC1 (stereo not drawn)	0.245
Cc1cccc(N2CCN(C(=O)C(Cc3ccccc3)n3cccc3)CC2)c1C (stereo not drawn)	0.468
O=C(Nc1nnc(-c2ccc(Cl)cc2)o1)C1=COCCO1	2.01
COc1ccc(C)cc1NC(=O)C1CCC(CNc2c(N3CCOCC3)c(=O)c2=O)CC1 (stereo not drawn)	-0.105
O=C(NCCc1c[nH]c2ccccc12)c1c(Cl)nc2sccn12	1.35
Cc1c(-n2c(SCC(=O)O)nnc2-c2ccccc2Cl)c(=O)n(-c2ccccc2)n1C	-0.254
O=S(=O)(c1ccc(Cl)nc1)N(Cc1ccccc1)Cc1ccccc1	-0.613
O=C(Nn1c(O)c(C=C2N=c3ccccc3=N2)sc1=S)c1cccc(Cl)c1	0.0261
COc1cc(NC(=O)CN2CCN(c3ccccc3F)CC2)c(C)cc1[N+](=O)[O-]	0.159
CCOC(=O)CSc1nc(-c2ccccc2)cc(C(F)(F)F)n1	-0.182
Cc1ccc(C(C(=O)NC2CCCC2)N(Cc2ccc(F)cc2)C(=O)c2csnn2)o1 (stereo not drawn)	0.014

SMILES	z-score
Nc1cccc(C(=O)Nc2ccco2)c1	0.211
CCCCCC(=O)NC(=S)NNC(=O)CC	0.0798
O=C(Nc1ccccc1N1CCOCC1)c1ccccc1NS(=O)(=O)c1ccc(F)c(F)c1	-0.0267
Cc1cc(C(=O)COC(=O)c2cccs2)c(C)n1-c1c(C)n(C)n(-c2ccccc2)c1=O	0.256
CC1=CC(C)=Nc2ccccc2N1	0.366
O=C(O)CC1(CC(=O)Nc2ccc3ccccc3c2)CCCCC1	-0.142
COc1ccccc1NC(=O)CCN1CC(C)OC(C)C1 (stereo not drawn)	-0.136
O=S(=O)(c1ccc(Br)cc1)c1nc(-c2ccccc2)oc1NCc1cccnc1	-0.264
Cc1n[nH]c(C)c1S(=O)(=O)N1CCCCCC1	0.35
COc1cccc(C(=O)Nc2ccc(NC(=O)C(C)C)nc2)c1	0.794
O=C(Nn1c(=O)[nH]c2ccccc2c1=O)c1ccco1	0.0633
O=C(CSC1CC(=O)N(CCc2ccccc2)C1=O)Nc1cccc(Cl)c1 (stereo not drawn)	0.182
CCc1ccccc1NC(=O)/C(C#N)=C/c1ccc(Sc2ccccc2)o1	0.568
COc1cccc(CNCCNC(=O)c2ccco2)c1OC	1.75
CCCN(CCC)C(=O)CSc1nc2ccccc2c(=O)n1CC1COc2ccccc2O1 (stereo not drawn)	-0.405
Cn1cc(CC(=O)N2CCN(c3ccc(Cl)cc3)CC2)c2ccccc21	-0.261
Cc1cc(C)n(-c2ccc(C(=O)Nc3cc(C(F)(F)F)ccc3N3CCOCC3)cc2)n1	-0.115
COc1ccc(CN(C(=O)CNC(=O)c2ccco2)C(C(=O)NC2CCCC2)c2ccco2)cc1 (stereo not drawn)	-0.116
COc1ccc(S(=O)(=O)N2CCN(C(=O)c3ccco3)CC2)cc1OC	-0.51
COC(=O)c1ccc(Oc2nc(C(N)=O)cc(-c3ccccc3)n2)cc1	0.535
CCOc1cc(/C=N\Nc2ccc([N+](=O)[O-])cc2)ccc1OCC(=O)Nc1ccc(C)c(C)c1	-0.364
